From the supplement of paper PMC4967469 come the findings set out here.

IC50 is the fitted dose that halves viability relative to control wells, and lower means more sensitive; a limit (>, <) means that the fit lies beyond the doses tested. AUC, from the same fit, is the share of area under the viability curve across the 256-fold dose range; values near 1 show little effect.

Compound in this assay: CC[C@H](Nc1ncnc2[nH]cnc12)c1nc2cccc(F)c2c(=O)n1-c1ccccc1 [CAL-101]
Briefly: Viability of human cancer cell lines after 72 h of drug (GDSC screen). How it is done:
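Human cancer cell lines in 384-well plates, medium with 10% serum, drug for 72 h over a 256-fold dose range (nine 2-fold or five 4-fold steps up to the top dose). Adherent lines were fixed and stained with the nucleic acid dye Syto60, suspension lines read with resazurin; signal relative to control wells, capped at 0 and 100%. One two-parameter sigmoid per drug and line, fitted in a mixed model over all curves with the slope shared within a line.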

For the cell line “NCI-H1304 (small cell lung carcinoma, suspension, top dose 20 µM)”, the AUC came out at 0.908 and the IC50 is more than 20 µM.

On to “NCI-H1355 (lung adenocarcinoma, adherent, top dose 20 µM)”, for which the AUC was 0.963 and the IC50 was more than 20 µM.

Take “NCI-H1395 (lung adenocarcinoma, adherent, top dose 20 µM)”: the AUC stood at 0.939 and the IC50 was more than 20 µM.

“NCI-H1417 (small cell lung carcinoma, suspension, top dose 20 µM)”: the AUC turned out to be 0.971 and the IC50 is more than 20 µM.

For the cell line “NCI-H1435 (lung adenocarcinoma, semi-adherent, top dose 20 µM)”, the AUC was 0.98 and the half-maximal inhibitory concentration (IC50) was more than 20 µM.

For the cell line “NCI-H1436 (small cell lung carcinoma, suspension, top dose 20 µM)”, the AUC is 0.968 and the IC50 is more than 20 µM.

In the case of “NCI-H1437 (lung adenocarcinoma, adherent, top dose 20 µM)”, the AUC turned out to be 0.958 and the IC50 is more than 20 µM.

On to “NCI-H1563 (lung adenocarcinoma, adherent, top dose 20 µM)”, for which the AUC was determined as 0.894 and the IC50 is more than 20 µM.

As for “NCI-H1568 (lung adenocarcinoma, adherent, top dose 20 µM)”, the AUC stood at 0.968 and the IC50 is more than 20 µM.

Consider “NCI-H1573 (lung adenocarcinoma, adherent, top dose 20 µM)”, for which the AUC worked out at 0.986 and the IC50 is more than 20 µM.

As for “NCI-H1581 (large cell lung carcinoma, semi-adherent, top dose 20 µM)”, the AUC was 0.983 and the IC50 was more than 20 µM.

With “NCI-H1623 (lung adenocarcinoma, adherent, top dose 20 µM)”, the AUC was 0.978 and the IC50 is more than 20 µM.

With “NCI-H1648 (lung adenocarcinoma, adherent, top dose 20 µM)”, the AUC stood at 0.959 and the IC50 is more than 20 µM.

For the cell line “NCI-H1651 (lung adenocarcinoma, adherent, top dose 20 µM)”, the AUC was found to be 0.981 and the IC50 was more than 20 µM.

In the case of “NCI-H1666 (lung adenocarcinoma, semi-adherent, top dose 20 µM)”, the AUC amounted to 0.954 and the IC50 was more than 20 µM.

For the cell line “NCI-H1688 (small cell lung carcinoma, adherent, top dose 20 µM)”, the AUC was 0.986 and the IC50 was more than 20 µM.

Regarding “NCI-H1693 (lung adenocarcinoma, adherent, top dose 20 µM)”, the AUC was determined as 0.975 and the IC50 was more than 20 µM.

For the cell line “NCI-H1694 (small cell lung carcinoma, suspension, top dose 20 µM)”, the AUC is 0.946 and the IC50 was more than 20 µM.

As for “NCI-H1703 (lung adenocarcinoma, adherent, top dose 20 µM)”, the AUC worked out at 0.897 and the IC50 was more than 20 µM.

On to “NCI-H1734 (lung adenocarcinoma, adherent, top dose 20 µM)”, for which the AUC came to 0.962 and the IC50 is more than 20 µM.

As for “NCI-H1755 (lung adenocarcinoma, adherent, top dose 20 µM)”, the AUC was found to be 0.536 and the IC50 stood at 1.59 µM.

On to “NCI-H1770 (non-small cell lung carcinoma, suspension, top dose 20 µM)”, for which the AUC was 0.992 and the IC50 was more than 20 µM.

In the case of “NCI-H1781 (lung adenocarcinoma, adherent, top dose 20 µM)”, the AUC is 0.978 and the IC50 was more than 20 µM.

On to “NCI-H1792 (lung adenocarcinoma, adherent, top dose 20 µM)”, for which the AUC was 0.952 and the IC50 was more than 20 µM.

Regarding “NCI-H1793 (lung adenocarcinoma, adherent, top dose 20 µM)”, the AUC was 0.975 and the IC50 was more than 20 µM.

In the case of “NCI-H1836 (small cell lung carcinoma, suspension, top dose 20 µM)”, the AUC was 0.986 and the IC50 was more than 20 µM.

In the case of “NCI-H1838 (lung adenocarcinoma, adherent, top dose 20 µM)”, the AUC was 0.975 and the IC50 is more than 20 µM.

Regarding “NCI-H1869 (lung squamous cell carcinoma, adherent, top dose 20 µM)”, the AUC is 0.927 and the IC50 was more than 20 µM.

Consider “NCI-H1876 (small cell lung carcinoma, adherent, top dose 20 µM)”, for which the AUC was found to be 0.959 and the IC50 is more than 20 µM.

Regarding “NCI-H1915 (large cell lung carcinoma, adherent, top dose 20 µM)”, the AUC stood at 0.975 and the IC50 was more than 20 µM.

Take “NCI-H1975 (lung adenocarcinoma, adherent, top dose 20 µM)”: the AUC worked out at 0.958 and the IC50 was more than 20 µM.

For “NCI-H1993 (lung adenocarcinoma, adherent, top dose 20 µM)”, the AUC is 0.931 and the IC50 is more than 20 µM.

With “NCI-H2009 (lung adenocarcinoma, adherent, top dose 20 µM)”, the AUC was 0.986 and the IC50 is more than 20 µM.

Regarding “NCI-H2023 (lung adenocarcinoma, adherent, top dose 20 µM)”, the AUC came out at 0.973 and the IC50 is more than 20 µM.

Turning to “NCI-H2029 (small cell lung carcinoma, adherent, top dose 20 µM)”, the AUC amounted to 0.989 and the IC50 is more than 20 µM.

Turning to “NCI-H2030 (lung adenocarcinoma, adherent, top dose 20 µM)”, the AUC was 0.919 and the IC50 was more than 20 µM.

Take “NCI-H2052 (mesothelioma, adherent, top dose 20 µM)”: the AUC stood at 0.978 and the IC50 was more than 20 µM.

In the case of “NCI-H2081 (small cell lung carcinoma, suspension, top dose 20 µM)”, the AUC was 0.947 and the IC50 was more than 20 µM.

Regarding “NCI-H2085 (lung adenocarcinoma, adherent, top dose 20 µM)”, the AUC was determined as 0.793 and the IC50 amounted to 10 µM.

As for “NCI-H2087 (lung adenocarcinoma, semi-adherent, top dose 20 µM)”, the AUC is 0.639 and the IC50 came to 3.13 µM.

For the cell line “NCI-H2110 (non-small cell lung carcinoma, adherent, top dose 20 µM)”, the AUC came to 0.985 and the IC50 is more than 20 µM.

In the case of “NCI-H2122 (lung adenocarcinoma, adherent, top dose 20 µM)”, the AUC is 0.987 and the IC50 was more than 20 µM.

Consider “NCI-H2135 (non-small cell lung carcinoma, adherent, top dose 20 µM)”, for which the AUC came to 0.953 and the concentration for half-maximal inhibition (IC50) is more than 20 µM.

As for “NCI-H2141 (small cell lung carcinoma, suspension, top dose 20 µM)”, the AUC is 0.93 and the IC50 is more than 20 µM.

As to “NCI-H2170 (lung squamous cell carcinoma, adherent, top dose 20 µM)”, the AUC came out at 0.984 and the IC50 is more than 20 µM.

Take “NCI-H2171 (small cell lung carcinoma, suspension, top dose 20 µM)”: the AUC amounted to 0.977 and the IC50 was more than 20 µM.

As to “NCI-H2172 (non-small cell lung carcinoma, adherent, top dose 20 µM)”, the AUC worked out at 0.981 and the IC50 is more than 20 µM.

In the case of “NCI-H2196 (small cell lung carcinoma, adherent, top dose 20 µM)”, the AUC turned out to be 0.974 and the IC50 is more than 20 µM.

In the case of “NCI-H2227 (small cell lung carcinoma, semi-adherent, top dose 20 µM)”, the AUC was 0.911 and the half-inhibitory concentration (IC50) is more than 20 µM.

For the cell line “NCI-H2228 (lung adenocarcinoma, adherent, top dose 20 µM)”, the AUC came to 0.928 and the IC50 is more than 20 µM.

Take “NCI-H2291 (lung adenocarcinoma, adherent, top dose 20 µM)”: the AUC turned out to be 0.984 and the IC50 was more than 20 µM.

Turning to “NCI-H2342 (lung adenocarcinoma, adherent, top dose 20 µM)”, the AUC was determined as 0.967 and the concentration for half-maximal inhibition (IC50) was more than 20 µM.

Regarding “NCI-H2347 (lung adenocarcinoma, adherent, top dose 20 µM)”, the AUC came to 0.924 and the IC50 was more than 20 µM.

In the case of “NCI-H2405 (lung adenocarcinoma, adherent, top dose 20 µM)”, the AUC came to 0.986 and the IC50 was more than 20 µM.

As for “NCI-H2444 (non-small cell lung carcinoma, adherent, top dose 20 µM)”, the AUC is 0.983 and the IC50 was more than 20 µM.

Regarding “NCI-H2452 (mesothelioma, adherent, top dose 20 µM)”, the AUC was 0.984 and the IC50 is more than 20 µM.

Take “NCI-H3122 (lung adenocarcinoma, adherent, top dose 20 µM)”: the AUC was found to be 0.941 and the IC50 was more than 20 µM.

Take “NCI-SNU-1 (stomach, suspension, top dose 20 µM)”: the AUC was 0.951 and the 50% inhibitory concentration (IC50) is more than 20 µM.

Take “NCI-SNU-5 (stomach, suspension, top dose 20 µM)”: the AUC was determined as 0.989 and the IC50 was more than 20 µM.

In the case of “NCI-SNU-16 (stomach, suspension, top dose 20 µM)”, the AUC is 0.991 and the IC50 is more than 20 µM.

Usually IC50 stands for the point on the concentration scale where inhibition reaches its midpoint.
